The values that follow come from patent US10294303B2, “Method of treating or ameliorating metabolic disorders using binding proteins for gastric inhibitory peptide receptor (GIPR) in combination with GLP-1 agonists” (AMGEN INC., priority 2015, dated 2019).

T1: Rhesus GIPR (Macaca mulatta, UniProt F7E1R9)
T1 construct: expressed in transfected cells
T1 sequence (F7E1R9 26-466): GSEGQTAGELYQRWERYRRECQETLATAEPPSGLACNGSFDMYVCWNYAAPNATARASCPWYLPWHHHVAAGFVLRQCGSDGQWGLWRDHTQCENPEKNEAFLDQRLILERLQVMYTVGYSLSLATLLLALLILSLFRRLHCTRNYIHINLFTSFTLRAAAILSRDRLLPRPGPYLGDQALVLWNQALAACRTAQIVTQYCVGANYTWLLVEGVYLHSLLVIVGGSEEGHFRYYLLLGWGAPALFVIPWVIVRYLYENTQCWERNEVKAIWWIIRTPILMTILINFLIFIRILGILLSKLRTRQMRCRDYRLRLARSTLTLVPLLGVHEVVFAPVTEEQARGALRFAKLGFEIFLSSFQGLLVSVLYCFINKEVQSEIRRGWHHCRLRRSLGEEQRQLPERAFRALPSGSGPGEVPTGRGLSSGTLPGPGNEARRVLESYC

B1: 2F11: anti-GIPR antibody, 2F11 family (antibody)
heavy: QVQLVESGGGVVQPGRSLRLSCAASGFTFSSYGMHWVRQAPGKGLEWVAVIWYDGSNKYYADSVKGRFTISSDNSKNTLYLQMNSLRAEDTAVYYCARDRTIFGVVLDYWGQGTLVTVSSASTKGPSVFPLAPSSKSTSGGTAALGCLVKDYFPEPVTVSWNSGALTSGVHTFPAVLQSSGLYSLSSVVTVPSSSLGTQTYICNVNHKPSNTKVDKKV[human IgG1 Fc with R292C N297G V302C (EU numbers) not written out]
light: DIQMTQSPSSLSASVGDRVTITCQASQDISNYLNWYQQKPGKAPKLLIYDASNLETGVPSRFSGSGSGTDFSFTISSLQPEDIATYYCQQYDILLTFGGGTKVEIKRTVAAPSVFIFPPSDEQLKSGTASVVCLLNNFYPREAKVQWKVDNALQSGNSQESVTEQDSKDSTYSLSSTLTLSKADYEKHKVYACEVTHQGLSSPVTKSFNRGEC
B2: 2A11.002: anti-GIPR antibody, 2A11 family (antibody)
heavy: QVQLVESGGGVVQPGRSLRLSCAASGFSFSSYGMHWVRQAPGKGLEWVAVIWYDASNKYYEDAVKGRFTISRDNSKNTLFLQVNSLRAEDTAVYYCARGITIFGHGFEYWGQGTLVTVSSASTKGPSVFPLAPSSKSTSGGTAALGCLVKDYFPEPVTVSWNSGALTSGVHTFPAVLQSSGLYSLSSVVTVPSSSLGTQTYICNVNHKPSNTKVDKKV[human IgG1 Fc with R292C N297G V302C (EU numbers) not written out]
light: EIVLTQSPGTLSLSPGERATLSCRASQIFTSTYLAWYQQKPGQAPRLLIYGASSRATGIPDRFSGSGSGTDFTLTISRLEPEDFAVYYCQQYGSSPRFGQGTRLEIKRTVAAPSVFIFPPSDEQLKSGTASVVCLLNNFYPREAKVQWKVDNALQSGNSQESVTEQDSKDSTYSLSSTLTLSKADYEKHKVYACEVTHQGLSSPVTKSFNRGEC
B3: 2A11.004: anti-GIPR antibody, 2A11 family (antibody)
heavy: B2 heavy with A55G
light: B2 light
B4: 2A11.005: anti-GIPR antibody, 2A11 family (antibody)
heavy: B2 heavy with A63S
light: B2 light
B5: 2A11.003: anti-GIPR antibody, 2A11 family (antibody)
heavy: B2 heavy with A55G, A63S
light: B2 light
B6: 18F2.011: anti-GIPR antibody, 18F2 family (antibody)
heavy: QVQLVESGGGVVQPGRSLRLSCAASGFTFSNFGMHWVRQAPGKGLEWVAVIWYDASNENYAD[about 20 residues not written out]MNSLRAEDTAVYYCARDRTIFGVVLGDYWGQGTLVTVSSASTKGPSVFPLAPSSKSTSGGTAALGCLVKDYFPEPVTVSWNSGALTSGVHTFPAVLQSSGLYSLSSVVTVPSSSLGTQTYICNVNHKPSNTKVDKKV[human IgG1 Fc with R292C N297G V302C (EU numbers) not written out]
light: DIQMTQSPSSLSASIGDRVTITCRASQDLRNYLGWYQQKPGKAPKLLIYGASSLQSGVPSRFSGSGSGTEFTLTISSLQPEDFATYYCLQHNNYPFTFGQGTKVDIKRTVAAPSVFIFPPSDEQLKSGTASVVCLLNNFYPREAKVQWKVDNALQSGNSQESVTEQDSKDSTYSLSSTLTLSKADYEKHKVYACEVTHQGLSSPVTKSFNRGEC
B7: 18F2.013: anti-GIPR antibody, 18F2 family (antibody)
heavy: QVQLVESGGGVVQPGRSLRLSCAASGFTFSNFGMHWVRQAPGKGLEWVAVIWYDASNENYAD[about 20 residues not written out]MNSLRAEDTAVYYCARDRTIFGVVLGDYWGQGTLVTVSSASTKGPSVFPLAPSSKSTSGGTAALGCLVKDYFPEPVTVSWNSGALTSGVHTFPAVLQSSGLYSLSSVVTVPSSSLGTQTYICNVNHKPSNTKVDKKV[human IgG1 Fc with R292C N297G V302C (EU numbers) not written out]
light: B6 light with L46R
B8: 5C2.015: anti-GIPR antibody, 5C2 family (antibody)
heavy: QVQLVQSGAEVKKPGASVKVSCKASGYTFTGYYIHWVRQAPGQGLEWMGWINPDAGGTDYSQRFQGRVTMTRDTSISTAYMELNSLRSDDTAVYYCAREATIFGMVIVPFDYWGQGTLVTVSSASTKGPSVFPLAPSSKSTSGGTAALGCLVKDYFPEPVTVSWNSGALTSGVHTFPAVLQSSGLYSLSSVVTVPSSSLGTQTYICNVNHKPSNTKVDKKV[human IgG1 Fc with R292C N297G V302C (EU numbers) not written out]
light: DIVMTQSPDSLAVSLGERATINCKSSQSVLSSSNNKNYIAWYQQKPGQPPKLLIYWASTRESGVPDRFSGSGSGTDFTLTISSLQAEDVAVFYCQQYYSTPWTFGQGTKVEIKRTVAAPSVFIFPPSDEQLKSGTASVVCLLNNFYPREAKVQWKVDNALQSGNSQESVTEQDSKDSTYSLSSTLTLSKADYEKHKVYACEVTHQGLSSPVTKSFNRGEC
B9: 11C1.010: anti-GIPR antibody, 11C1 family (antibody)
heavy: QVQLVQSGAEVKKPGASVKVSCKASGYTFTGYYIHWVRQAPGQGLEWMGWISPNSGETSYAQKFQDRVTMTRDTSISTAYMELSRLRSDDTAVYFCAREATIFGMLIVPFDYWGQGTLVTVSSASTKGPSVFPLAPSSKSTSGGTAALGCLVKDYFPEPVTVSWNSGALTSGVHTFPAVLQSSGLYSLSSVVTVPSSSLGTQTYICNVNHKPSNTKVDKKV[human IgG1 Fc with R292C N297G V302C (EU numbers) not written out]
light: B8 light with A12S, I39L, K51N, A57T, S82N, F92Y, S99R
B10: 11C1.009: anti-GIPR antibody, 11C1 family (antibody)
heavy: B9 heavy with R85S
light: B8 light with I39L, A57T, S82N, F92Y, S99R
B11: 12H11.014: anti-GIPR antibody, 12H11 family (antibody)
heavy: B9 heavy with S55Q, S59N, R85S, F95Y
light: B8 light with I39L, A57T, S82N, F92Y, S99R
B12: 12H11.013: anti-GIPR antibody, 12H11 family (antibody)
heavy: B9 heavy with S55Q, S59N, R85S, F95Y
light: B8 light with I39L, A57T, E61D, S82N, F92Y, S99R
B13: 12H11.004: anti-GIPR antibody, 12H11 family (antibody)
heavy: B9 heavy with Q3P, S55Q, S59N, F95Y, A97T
light: B8 light with A12S, I39L, K51N, A57T, E61D, S82N, F92Y, S99R
B14: 5C2.016: anti-GIPR antibody, 5C2 family (antibody)
heavy: B8 heavy with D54E, A55S
light: B8 light
B15: 13H12.005: anti-GIPR antibody, 13H12 family (antibody)
heavy: B8 heavy with D54E, A55S, N84S
light: B8 light

Numbering of substitutions follows the chain as printed.

The assay concerns the target T1, Rhesus GIPR. The assay is described as follows: Rhesus GIPR cAMP assay. It counts as cell-based. As to the method: A cyclic AMP assay (no. 62AM4PEC CISBIO) was used to determine the potency of anti-GIPR antibodies. 293T cells were grown in suspension and transiently transfected with human GIPR using Lipofectamine 2000 (no. 11668027 Life Technologies). 24 hrs after transfection, antibody was titrated from high to low concentration in black 384 well plates (no. 3712 Corning Life Sciences) with a final volume of 10 uls/well in assay buffer (DMEM no. D5671 Sigma supplemented with 15 mM HEPES and 0.1% Bovine Serum Albumin). GIPR transfected cells were then added to the assay plate at 10,000 cells per well (10 uls/well) in the presence of 1:40 cAMP-d2 (CISBIO kit component). Assay plates were allowed to incubate for 30 minutes at 37′ C., 5% CO2. […] Plates were then incubated at 37° C., 5% CO2 for 30 minutes. Anti-cAMP-Eu3+-Cryptate (CISBIO kit component) was prepared at 1:40 in conjugate and lysis buffer (CISBIO kit component) and 15 uls/well of this solution was added to the assay plates and allowed to incubate for 1 hour at room temperature. Homogeneous time-resolved fluorescence was then collected on a Tecan Genios Pro multimode microplate reader using an excitation wavelength of 320 nm, a lag time of 150 is and an integration time of 50 us. […] Collected data was then reported as a FRET ratio of A665/A620 multiplied by a factor of 10000 as per CISBIO kit insert instructions. Percent inhibition of hGIP binding to transiently expressed GIPR was calculated by subtracting FRET ratio of cells plus hGIP (f1) from FRET ratio of cells plus antibody plus hGIP (f2) divided by FRET ratio of cells plus hGIP (f1) subtracted from FRET ratio of cells alone (f3) multiplied by 100: % Inhibition=[(f2−f1)/(f3−f1)]×100.
A general note: Changes in cAMP serve as a functional read-out for many G protein-coupled receptors.
For B1, the “Rhesus GIPR cAMP Assay (Conc. mAb @ 60% Inhibition in nM)” value was “>[Ab] Tested”.

For B2, the “Rhesus GIPR cAMP Assay (Conc. mAb @ 60% Inhibition in nM)” value is “>[Ab] Tested”.

B3: the “Rhesus GIPR cAMP Assay (Conc. mAb @ 60% Inhibition in nM)” value is “>[Ab] Tested”.

As for B4, the “Rhesus GIPR cAMP Assay (Conc. mAb @ 60% Inhibition in nM)” value is “>[Ab] Tested”.

In the case of B5, the “Rhesus GIPR cAMP Assay (Conc. mAb @ 60% Inhibition in nM)” value was “>[Ab] Tested”.

On to B6, for which the “Rhesus GIPR cAMP Assay (Conc. mAb @ 60% Inhibition in nM)” value was “>[Ab] Tested”.

Take B7: the “Rhesus GIPR cAMP Assay (Conc. mAb @ 60% Inhibition in nM)” value is “>[Ab] Tested”.

Regarding B8, the “Rhesus GIPR cAMP Assay (Conc. mAb @ 60% Inhibition in nM)” value is “>[Ab] Tested”.

Take B9: the “Rhesus GIPR cAMP Assay (Conc. mAb @ 60% Inhibition in nM)” value was “>[Ab] Tested”.

Turning to B10, the “Rhesus GIPR cAMP Assay (Conc. mAb @ 60% Inhibition in nM)” value is “>[Ab] Tested”.

Consider B11, for which the “Rhesus GIPR cAMP Assay (Conc. mAb @ 60% Inhibition in nM)” value is “>[Ab] Tested”.

B12: the “Rhesus GIPR cAMP Assay (Conc. mAb @ 60% Inhibition in nM)” value is “>[Ab] Tested”.

Consider B13, for which the “Rhesus GIPR cAMP Assay (Conc. mAb @ 60% Inhibition in nM)” value is “>[Ab] Tested”.

For the molecule B14, the “Rhesus GIPR cAMP Assay (Conc. mAb @ 60% Inhibition in nM)” value was “>[Ab] Tested”.

On to B15, for which the “Rhesus GIPR cAMP Assay (Conc. mAb @ 60% Inhibition in nM)” value is “>[Ab] Tested”.
